Measured values from the supplement of paper PMC7726561.
In all, about 1,400 sequences were measured (“thermal melting temperature (Tm) of peptide-HLA complex”: median about 60, lowest 2% from about 45 on). The list shows a part of the results.

Each sequence was assayed against HLA-B*07:02 (assay: thermal melting temperature (Tm) of peptide-HLA complex; higher = more thermostable pHLA complex). Conditions: C1R-B*07:02.
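Note: cell lysates heated 10 min at 37–73 °C, remaining pHLA pulled down with pan-class I antibody, peptides quantified by DIA-MS versus 37 °C, Tm where half the complex is lost.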

| Sequence | thermal melting temperature |
| --- | --- |
| RPRAPIIAV | 61.4 °C |
| LPQLTGPVL | 63.1 °C |
| SPRLLGAAAL | 59.8 °C |
| EPRTVVSGL | 49.4 °C |
| TPQGFRSTL | 60 °C |
| NPRPTAQDL | 54.5 °C |
| RPAGLSPTL | 59.6 °C |
| TPARKEISL | 57.1 °C |
| APRPGALL | 60.8 °C |
| SPQPRLIYL | 62.7 °C |
| SPVDPGARQAL | 56.7 °C |
| RPKVPVLQL | 61.6 °C |
| SPQKVTLYL | 62.1 °C |
| LPKTGTVSL | 58.3 °C |
| RPVTPITNF | 59.4 °C |
| FPQHTIASL | 58.7 °C |
| RPAANPIQFTL | 59.8 °C |
| IPAKPPVSFF | 62 °C |
| PAEPKLAF | 55.5 °C |

| Sequence | thermal melting temperature |
| --- | --- |
| LPHAVSSLL | 62.4 °C |
| LPRGEKPNPL | 51.3 °C |
| GPDEAKIKALL | 60 °C |
| APIQGNREEL | 56.3 °C |
| NPRDPPSWSVL | 58.6 °C |
| LPSVPSTHL | 57.8 °C |
| APRTVLLL | 48.3 °C |
| GPRPGSPSAL | 56.7 °C |
| VPEVTKPSL | 57.6 °C |
| VPMEIKPGISL | 61.6 °C |
| SPRAGQLLEVL | 60 °C |
| VPRNYDPAL | 57.3 °C |
| RPSSTITYL | 55.4 °C |
| SPRGFPLGL | 63.2 °C |
| NPKNPGLWL | 61 °C |
| SPGLLPHL | 61 °C |
| PNIPGKSL | 61.1 °C |
| TPLSSTVTL | 62.2 °C |
| SPQSPGDAL | 58.9 °C |

| Sequence | thermal melting temperature |
| --- | --- |
| RPLEMIEPRTL | 53.5 °C |
| MPQKERESI | 60.6 °C |
| YPRQQLLTL | 62.6 °C |
| FPHATSQTLL | 60.5 °C |
| SPYLRPLTL | 63.5 °C |
| RPWDPAVGVL | 59.5 °C |
| APPVLKRPIL | 51.5 °C |
| RPSAAGINL | 57.1 °C |
| LPYSIRVLL | 60.4 °C |
| SPELIRVQL | 58.5 °C |
| HPMPRVNEI | 55.6 °C |
| TPRSPQPEL | 54.9 °C |
| LLRLPSSVL | 59.8 °C |
| HPRYLIPEL | 57.4 °C |
| APHPVYYPAL | 61.6 °C |
| NVRIATTAL | 60 °C |
| VPRLPGETLI | 63.1 °C |
| SPYPRVKVDF | 61.6 °C |
